Source: the RNAGym collection of RNA variant scans (doi:10.7554/elife.90254)
Read counts are not given, so values of variants with three or more changes are uncertain.

B1: OR4K15 (parent)
chain: GUUAACGGUCAUAGGCCAUGGAAACUAGGAGCACCAUUUCGCUGCCAGUGAAGAAAUGAACAAAGAAAAUCUGGGCCAGGCAGGCAUCAAAAGAAAUAGUCUUGCGCUCAACCAGAAAGUCUGUAAUCAUUUUAAGGGUA

Variants of: B1
Assay: self-cleavage, relative activity (ratio to wild type); higher = more cleavage; in vitro, sequencing; the parent is a self-cleaving ribozyme
GUUAACGGCCAUAGGCCAUGGUAACUAGGAGCACCAUUUCGCUGCCAGUGAAGAAAUGAACAAAGAAACUCUGGGCCAGGCAGGCAUCAAAAGAAAUAGUCUUGCGCUCAACCAGAAAGUCUGUAAUCAUUUUAAGGGUA gave a self-cleavage of 2.64. GUUAACGGCCAUAGGCCAUGGAGACUAGGAGCACCAUUUCGCUGCCAGUGAAGAAAUGAACAAAGAAAAUCUGGGCCAGGCAGGCAUCAGAAGAAAUAGUCUUGCGCUCAACCAGAAGGUCUGUAAUCAUUUUAAGGGUA showed a self-cleavage of 1.33. In the case of GUUAACGGCCAUAGGCCAUGGAGACUAGGAGCACCAUUUCGCUGCCAGUGAAGAAAUGAACAAAGAAAAUCUGGGCCAGGCAGGCAUCAAGAGAAAUAGUCUUGCGCUCAACCAGAAAGUCUGUAAUCAUUUCAAGGGUA, the self-cleavage is reported as 1.59. In the case of GUUAACGGCCAUAGGCCAUGGGAACUAGGAGCACCAUUUCGCUGCCAGUGAAGAAAUGAACAAAGAAAAUCUGGGCCAGGCGGGCAUCAAAAGAAAUAGUCUUGCGCUCAACCAGAAAGUCUGUAAUCAUUUUAAGGGUA, the self-cleavage is reported as 0.45. In the case of GUUAACGGCCAUAGGCCAUGGAGACUAGGAGCACCAUUUCGCUGCCAGUGAAGAAAUGAACAAAGAAAAACUGGGCCAGGCAGGCAUCAAAAGAAAUAGUCUUGCGCUCAACCAGAAAGUCUGUAAUCAUUUUAAGGGUA, the self-cleavage is reported as 2.37. For GUUAACGGCCAUAGGCCAUGGGAACUAGGAGCACCAUUUCGCUGCCAGUGAAGAAAUGAACAAAGAGAAUCUGGGCCAGGCAGGCAUCAAAAGAAAUAGUCUUGCGCUCAACCAGAAAGUCUGUAAUCAUAUUAAGGGUA, the self-cleavage was 1.49. With GUUAACGGCCAUAGGCCAUGGAAACUAGGGGCACCGUUUCGCUGCCAGUGAAGAAAUGAACAAAGAAAAUCUGGGCCAGGCAGGCAUCAAAAGAAAUAGUCUUGCGCUCAACCAGGAAGUCUGUAAUCAUUUUAAGGGUA the self-cleavage was 0.92. Variant GUUAACGGCCAUAGGCCAUGGAAGCUAGGAGCACCAUUUCGCUGCCAGUGAAGAAAUGAACAAAGAAAAUCUGGGCCAGGCAGGCAUCAAAAGGAAUAGUCUUGCGCUCAACCUGGAAGUCUGUAAUCAUUUUAAGGGUA has a self-cleavage of 0. With GUUAACGGCCAUAGGCCAUGGAAGCUAGGAGCACCAUUUCGCUGCCAGUGAAGAAAUGAACAAAGAAAAUCUGGGCCAGGCAGGCAUCAAAAGAAAUAGUCUUGCGCUCCACCAGAAAGUCUGUAAUCAUUUUAAGGGUA the self-cleavage was 0.51. With GUUAACGGCCAUAGGCCAUGGAAUCUAGGAGCACCAUUUCGCUGCCAGUGAAGAAAUGAACAAAGAAGAUCUGGGCCAGGCAGGCAUCAGAAGAAAUAGUCUUGCGCUCAACCAGAAAGUCUGUAAUCAUUUUAAGGGUA the self-cleavage was 1.08. For GUUAACGGCCAUAGGCCAUGGAAACUAGGGGCACCAUUUCGCUGCCAGUGAAGAAACAAGCAAAGAAAAUCUGGGCCAGGCAGGCAUCAAAAGAAAUAGCCUUGCGCUCAACCAGAAAGUCUGUAAUCAUUUUAAGGGUA, the self-cleavage was 1.89. Work on GUUAACGGCCAUAGGCCAUGGAGACUAGGAGCACCAUUUCGCUGCCAGUGAAGGAAUGAACAAAGAAAAUCUGGGCCAGGCAGGCACCAAAAGAAAUAGUCUCGCGCUCAACCGGAAAGUCUGUAGUCAUUUUAAGGGUA yielded a self-cleavage of 0.06. GUUAACGGCCAUAGGCCAUGGUAACUAGGAGCACCAUUUCGCUGCCAGUGAAGAAAUGAACAAAGAAAAUCUGGGCCAGGCAGGCAUUAAAAGAAACAGUCUCGCGCUCUACCAGAAAGUCUGUAAUCACUUUAAGGGUA gave a self-cleavage of 0.23. In the case of GUUAACGGCCAUAGGCCAUGGAAGCUAGGAGCACCAUUUCGCUGCCAGUGAAGAAAUGAACAAAGAAAAUCUGGGCCAGGCUGGCAUCAAAAGAAAUAGUCUUGCGCUCAACCAGAAAGUCUGUAAUCAUUUUAAGGGUA, the self-cleavage is reported as 0.44. GUUAACGGCCAUAGGCCAUGGGAACUAGGAGCACCAUCUCGCUGCCAGUGAAGAAAUGAACAAAGAAAAUCUGGGCCAGGCAGGCAUCAAAAGAAAUAGUCUUGCGCUCAACCAGAAAGCCUGCAAUCAUUUUAAGGGUA showed a self-cleavage of 0.47. With GUUAACGGCCAUAGGCCAUGGGAACUAGGAGCACCAUUUCGCAGCCAGUGAAGAAAUGAACAAAGAAAAUCUGGGCCUGGCAGGCAUCAAAAGAAAUAGUCUUGCGCUCAACCAGAAAGUCUUUAAUCACUUUAAGGGUA the self-cleavage was 0.58. In the case of GUUAACGGCCAUAGGCCAUGGGAACUAGGAGCACCAUUUCGCUGCCAGUGAAGAAAUGAACAAAGAAAAUCUGGGCCAGGCAGGCAUCAGAAGAAAUAGUCUUGCGCUCAACCAGAAAGUCUGUAAUCAUUUUAAGGGUA, the self-cleavage is reported as 2.1. For GUUAACGGCCAUAGGCCUUGGAAACUAGGAGCACCAUUUCGCUGCCAGUGAAGAAAUGAACAAAGAAAAUCUGGGCCAGGCAGGCAUCAAAAGAAAUAGUCUUGCGCUCAACCGGAAAGUCUGUAAUCAUUUUAAGGGUA, the self-cleavage was 0.12. Variant GUUAACGGCCAUAGGCCAUGGAGACUAGGAGCACCAUUUCGCUGCCAGUGAAGAAGUGAACAAAGAAAAUCUGGGCCAGGCAGGCAUCAAAAGAAAUAGUCUUGCGCUCAACCAGAAAGUCUGUAAUCAUUUUAAGGGUA has a self-cleavage of 1.63. GUUAACGGCCAUAGGCCAUGGAGACUAGGAGCACCAUUUCACUGCCAGUGAAGAAAUGAACAAAGGAAAUCUGGGCCAGGCAGGCAUCAAAAGAAAUAGUCUUGCGCUCAACCAGAAAGUCUGUAAUCAUUUUAAGGGUA gave a self-cleavage of 1.23. GUUAACGGCCAUAGGCCAUGGAAACUGGGAGCACCAUUUCGCUGCCAGUGUAGUAAUGAACAAGGAAAAUCUGGGCCAGGCAGGCAUCAAAAGAAAUAGUCUUGCGCUCAACCAGAAAGUCUGUAAUCACUUUAAGGGUG gave a self-cleavage of 0.72.
